According to PubChem BioAssay AID588453 (National Center for Advancing Translational Sciences (NCATS), 2011):
Where “and” joins values, the source holds several entries; their conditions need not be identical. Equal entries are not always repeated. Screen size: about 390,000 compounds; about 4,000 (1%) were called active. Inconclusive results, whose numbers are uncertain, are shown with a selection of clear calls. The call rests on the fitted dose curve; in most records, active means well fitted inhibition curve with a large enough effect; inconclusive means small, poorly fitted or top-dose-only effect; inactive means no such curve, though single readings can be large or run the other way. Potencies of inconclusive entries are doubtful fits and often do not repeat.

target: Thioredoxin reductase 1, cytoplasmic (Rattus norvegicus) (UniProt O89049); assay: qHTS Assay for Inhibitors of Mammalian Selenoprotein Thioredoxin Reductase 1 (TrxR1): qHTS; conditions: recombinant rTrxR1, NADPH fluorescence consumption, selenite substrate; series mostly up to 114 µM; further: nearly all actives have a fitted effect of over 65% in size
How it was run: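 Rat TrxR1 (90 nM in the dispensed reagent) was pre-reduced with 400 uM NADPH for 5 min at room temperature, then incubated with compound for 15 min. After 400 uM selenite was added, NADPH fluorescence (Ex 340/Em 450 nm) was followed for 8 min.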
On the % scale 0 is the no-effect control and ±100 the full control effect; potency means the concentration at half of the fitted maximal effect; tags describe the fitted curve by direction and shape.

Sequence of UniProt O89049 (O89049 whole entry, looked up): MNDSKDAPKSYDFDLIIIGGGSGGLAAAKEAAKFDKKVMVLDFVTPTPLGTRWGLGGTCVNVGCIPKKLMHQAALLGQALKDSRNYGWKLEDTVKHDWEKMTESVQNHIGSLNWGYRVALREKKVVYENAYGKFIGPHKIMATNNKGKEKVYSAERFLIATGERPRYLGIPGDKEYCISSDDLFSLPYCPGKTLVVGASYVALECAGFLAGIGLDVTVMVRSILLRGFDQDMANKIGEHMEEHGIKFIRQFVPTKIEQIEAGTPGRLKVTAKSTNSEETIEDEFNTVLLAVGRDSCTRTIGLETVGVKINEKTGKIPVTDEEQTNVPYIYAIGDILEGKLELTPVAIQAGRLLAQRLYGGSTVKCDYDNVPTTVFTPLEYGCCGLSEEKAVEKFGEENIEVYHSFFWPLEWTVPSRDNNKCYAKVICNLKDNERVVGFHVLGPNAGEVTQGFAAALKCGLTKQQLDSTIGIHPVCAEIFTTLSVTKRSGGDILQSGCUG

SMILES | Potency | activity change, negative = inhibition
COc1cc(/C=C2/N=C(C3CCCCC3)OC2=O)cc(OC)c1OC | inconclusive: 39.8 µM [inhibitor, partial curve] | –
O=C(N/N=C1/CCSC1)c1cc(Br)ccc1O | inactive | –
O=C(O)c1cccc(NC2=C(Cl)C(=O)c3ccccc3C2=O)c1 | inconclusive: 0.398 µM [inhibitor, full curve, poor fit] | –
O=C(O)CC12CC3CC(C1)CC(n1ncc(NCc4ccccc4Cl)c(Cl)c1=O)(C3)C2 | inactive | –
C=CCn1c(O)c(N=Nc2ccccc2C)c2ccccc21 | inconclusive: 44.7 µM [inhibitor, partial curve] | –
O=C(NC1CCCCC1)c1ccc(CS(=O)Cc2ccccc2Cl)o1 (centres undefined) | inconclusive: 50.1 µM [inhibitor, partial curve] | –
COC(=O)c1cc([N+](=O)[O-])c(-n2ccnc2)c([N+](=O)[O-])c1 | inconclusive: 56.2 µM [inhibitor, partial curve, poor fit] | –
COc1ccc(-c2ccc(CCC(=O)O)n2-c2ccccc2O)cc1 | inconclusive: 70.8 µM [inhibitor, single point] | –
Fc1ccc(NC(=S)Nc2ccc3nccnc3c2)cc1 | inconclusive: 79.4 µM [inhibitor, single point] | –
Cn1c(Nc2ccc(Cl)cc2)cc(=O)n(C)c1=O | inconclusive: 15.8 µM [inhibitor, full curve] and inconclusive: 44.7 µM [inhibitor, partial curve] | –
COc1ccc(NC(=O)c2sc(=S)[nH]c2N)cc1 | inconclusive: 1.41 µM [inhibitor, full curve, poor fit] | –
CCN(CC)c1ccc(C(=O)NCc2ccc3c(c2)CCN3C(=O)c2ccc(F)cc2)cc1 | inactive | –
NC(=O)c1cc2ccc(O)cc2oc1=Nc1ccccc1 | inconclusive: 39.8 µM [inhibitor, single point] | –
C=CCN1C=C2C(=O)C(C)(OC(=O)C3CCCC3)C(=O)C(c3ccccc3)=C2C=C1CCCC(=O)OC (centres undefined) | active: 79.4 µM | –
CCOC(=O)C1=C(CN2CCN(C(=O)c3ccco3)CC2)NC(=O)NC1c1ccc(C)cc1 (centres undefined) | inconclusive: 11.2 µM [inhibitor, partial curve, poor fit] | –
N#C/C(=C\c1ccc([N+](=O)[O-])cc1)C(=O)NCCCn1ccnc1 | inconclusive: 15.8 µM [inhibitor, full curve, poor fit] | –
O=C(C1=C(O)C(=O)N(CCN2CCOCC2)C1c1cccc(Br)c1)c1cc2ccccc2o1 (centres undefined) | inconclusive: 56.2 µM [inhibitor, partial curve] | –
O[Si](CCCN1CCCCC1)(c1ccc(F)cc1)C1CCCCC1 (centres undefined) | inconclusive: 0.119 µM [inhibitor, full curve, poor fit] | –
O=C1CSC(=S)N1N=Cc1ccccc1O | – | inactive: -0.431% [at 11.4 µM]
CN1CCN(c2nc3c(c(=O)[nH]c(=O)n3C)n2CCSc2nnnn2-c2ccccc2)CC1 | inconclusive: 89.1 µM [inhibitor, single point] | –
COC(=O)c1cc(CSc2nnc(NC3CCCCC3)s2)oc1C | inconclusive: 8.91 µM [inhibitor, partial curve] | –
CCOC(=O)CC(=O)CSc1nc(-c2ccc3c(c2)OCO3)cc(C(F)(F)F)c1C#N | inactive | –

SMILES | Potency | activity change, negative = inhibition
Cc1ccnc2c1ccc1c(C)ccnc12 | inconclusive: 56.2 µM [inhibitor, partial curve] | –
O=C(CCc1ccc(S(=O)(=O)N2CCOCC2)cc1)N/N=C/c1ccc(F)cc1F | inactive | –
CC(=O)c1ccc(-n2c(-c3cc(-c4ccsc4)n[nH]3)n[nH]c2=S)cc1 | inconclusive: 70.8 µM [inhibitor, single point] | –
O=C(Nc1cc(S(=O)(=O)N2CCCC2)ccc1OCC(F)(F)F)c1ccccc1F | inconclusive: 22.4 µM [inhibitor, partial curve, poor fit] | –
N#CC1=C(S)N=C(N)C(c2nc(-c3ccccc3)cs2)C12CCCC2 (centres undefined) | inconclusive: 79.4 µM [inhibitor, partial curve] | –
CC(=NNC(=S)Nc1ccc(C)cc1)c1ccccn1 | inconclusive: 1.78 µM [inhibitor, full curve] | –
O=C(C1=C(O)C(=O)N(CCN2CCOCC2)C1c1ccc(Cl)cc1)c1cc2ccccc2o1 (centres undefined) | inconclusive: 50.1 µM [inhibitor, partial curve, poor fit] | –
Cc1cccc(N2CCN(C(c3ccc(N(C)C)cc3)c3nnnn3C(C)(C)C)CC2)c1C (centres undefined) | active: 11.2 µM | –
CCOC(=O)C1Oc2ccccc2C(c2ccoc2)=C1C(=O)OC (centres undefined) | inconclusive: 56.2 µM [inhibitor, partial curve, poor fit] | –
O=S(=O)(c1ccc(Cl)cc1)c1nnn2c1nc(NCc1ccc3c(c1)OCO3)c1sccc12 | inactive | –
Cc1ccc(S(=O)(=O)CCC(=O)Nc2ccccc2C)cc1 | inconclusive: 35.5 µM [inhibitor, partial curve] | –
CC(/C=C\c1ccccc1)=C/C(=O)O | inactive | –
COCCn1c(SCC(=O)NCCc2ccccc2)nnc1-c1ccco1 | inconclusive: 20 µM [inhibitor, full curve] | –
COc1ccc(C2c3ccc(O)cc3Oc3ncn(Cc4ccco4)c(=N)c32)cc1OC (centres undefined) | inconclusive: 50.1 µM [inhibitor, partial curve] | –
COc1ccc(C(=O)OCC(=O)NC(=O)NCc2ccccc2)cc1[N+](=O)[O-] | inconclusive: 100 µM [inhibitor, single point] | –
O=S(=O)(c1ccc(Cl)c(NC(=S)Nc2ccccc2N2CCOCC2)c1)N1CCOCC1 | inconclusive: 20 µM [inhibitor, single point] | –
CCOc1ccc(N(CC(=O)N2CCOCC2)S(=O)(=O)c2ccc(F)cc2)cc1 | inconclusive: 79.4 µM [inhibitor, single point] | –
CC(C)C(C)NC(=O)COc1ccc(S(=O)(=O)N2CCOCC2)cc1[N+](=O)[O-] (centres undefined) | inconclusive: 70.8 µM [inhibitor, single point] | –
Nc1ccc(/C=C/c2ccnc3ccccc23)cc1 | inactive | –
COCCN1C(=O)CS/C1=C(/C#N)C(=O)NCc1ccco1 | inconclusive: 56.2 µM [inhibitor, partial curve] | –
CCC(C)NC(=O)CS(=O)Cc1nc(-c2cccc(C)c2)oc1C (centres undefined) | inconclusive: 22.4 µM [inhibitor, partial curve] | –
COc1ccc(C(=O)NC(=S)NC(C)(C)C)cc1Br | inconclusive: 28.2 µM [inhibitor, partial curve] | –

SMILES | Potency | activity change, negative = inhibition
CCCC(=O)NC(=S)Nc1ccc(N2CCOCC2)c(Cl)c1 | inconclusive: 44.7 µM [inhibitor, partial curve, poor fit] | –
Cn1c(=O)c(=O)n(C)c2cc(N3CCOCC3)c(NS(=O)(=O)c3ccc(Br)cc3)cc21 | inconclusive: 79.4 µM [inhibitor, partial curve] | –
COc1ccccc1/C=C/C(=O)NCC(=O)N1CCC(N(C)C2CCCC2)CC1 | inconclusive: 20 µM [inhibitor, full curve] | –
COc1ccc(C(=O)c2sc3nc(-c4ccccc4)ccc3c2N)cc1 | inconclusive: 56.2 µM [inhibitor, partial curve, poor fit] | –
Cc1ccccc1OCC(=O)N1N=C(c2cccnc2)CC1(O)C(F)(F)F (centres undefined) | inconclusive: 44.7 µM [inhibitor, partial curve, poor fit] | –
O=C(c1ccco1)N1CCN(C(=O)c2ccc(CS(=O)c3cccc(Cl)c3)o2)CC1 (centres undefined) | inconclusive: 79.4 µM [inhibitor, single point] | –
Cc1ccc(SC(CC(=O)c2ccc(F)cc2)C(=O)O)cc1 (centres undefined) | inconclusive: 8.91 µM [inhibitor, partial curve, poor fit] | –
O=C(CCS(=O)(=O)c1cccc2nsnc12)NCc1ccccc1 | inconclusive: 35.5 µM [inhibitor, partial curve] | –
Cc1ccc(C(=O)NC(=S)Nc2c(C)ccc3nsnc23)cc1 | inconclusive: 70.8 µM [inhibitor, partial curve] | –
Cn1c(SCC(=O)c2ccccc2)nnc1-c1ccco1 | inconclusive: 44.7 µM [inhibitor, partial curve] | –
CCOC(=O)/C(=N\Nc1ccccc1)c1csc(Nc2ccc(C)cc2)n1 | inconclusive: 79.4 µM [inhibitor, single point] | –
CC(=O)N1CCc2cc(C(=O)CN3CCN(c4ccccn4)CC3)ccc21 | inconclusive: 31.6 µM [inhibitor, full curve] | –
COc1ccc(N(CC(=O)NCCSCc2ccc(C)cc2)S(=O)(=O)c2ccccc2)cc1 | inconclusive: 79.4 µM [inhibitor, single point] | –
COc1cccc(NCc2nnc3n2CCCCC3)c1 | inactive | –
CC(Sc1nnc(-c2ccco2)n1N)C(=O)NCC1CCCO1 (centres undefined) | inconclusive: 31.6 µM [inhibitor, partial curve] | –
Cc1ccsc1C(=O)OCc1cc(=O)n2ccsc2n1 | inactive | –
COc1ccc(S(=O)(=O)N2CCOCC2)cc1NC(=O)COC(=O)CCS(=O)(=O)c1ccc(C)cc1 | inactive | –
Cn1c(C(=O)N2CCN(Cc3ccccc3)CC2)cc2c(=O)n(C)c3ccccc3c21 | inconclusive: 12.6 µM [inhibitor, partial curve, poor fit] | –
CCCN1C(=O)C(=O)c2cc(Cl)ccc21 | inactive | –
COc1ccccc1N(CCC#N)C(=S)Nc1ccc(S(=O)(=O)N2CCOCC2)cc1 | inconclusive: 25.1 µM [inhibitor, single point] | –
